# Measured values: article PMC6919601, “Identification of Plasmodium dipeptidyl aminopeptidase allosteric inhibitors by high throughput screening” (PLoS ONE, 2019)
# Screen size: about 110,000 compounds; about 230 (0.21%) showed an effect of 50% or more. The list shows a part of the results. Where a SMILES comes first, the peptide text is derived from it.
# Target: DPAP1 (Plasmodium falciparum, UniProt Q8IIJ9)
# Experiment: primary screen, percent inhibition; read by cleavage of a fluorogenic dipeptide substrate; higher = more effect of the substance
# Design: species or system P. falciparum D10 trophozoite lysates; single well
# 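Note: 30 min substrate incubation versus DMSO and 10 µM JCP410 controls.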
# Sequence of DPAP1 (Q8IIJ9 whole entry, looked up): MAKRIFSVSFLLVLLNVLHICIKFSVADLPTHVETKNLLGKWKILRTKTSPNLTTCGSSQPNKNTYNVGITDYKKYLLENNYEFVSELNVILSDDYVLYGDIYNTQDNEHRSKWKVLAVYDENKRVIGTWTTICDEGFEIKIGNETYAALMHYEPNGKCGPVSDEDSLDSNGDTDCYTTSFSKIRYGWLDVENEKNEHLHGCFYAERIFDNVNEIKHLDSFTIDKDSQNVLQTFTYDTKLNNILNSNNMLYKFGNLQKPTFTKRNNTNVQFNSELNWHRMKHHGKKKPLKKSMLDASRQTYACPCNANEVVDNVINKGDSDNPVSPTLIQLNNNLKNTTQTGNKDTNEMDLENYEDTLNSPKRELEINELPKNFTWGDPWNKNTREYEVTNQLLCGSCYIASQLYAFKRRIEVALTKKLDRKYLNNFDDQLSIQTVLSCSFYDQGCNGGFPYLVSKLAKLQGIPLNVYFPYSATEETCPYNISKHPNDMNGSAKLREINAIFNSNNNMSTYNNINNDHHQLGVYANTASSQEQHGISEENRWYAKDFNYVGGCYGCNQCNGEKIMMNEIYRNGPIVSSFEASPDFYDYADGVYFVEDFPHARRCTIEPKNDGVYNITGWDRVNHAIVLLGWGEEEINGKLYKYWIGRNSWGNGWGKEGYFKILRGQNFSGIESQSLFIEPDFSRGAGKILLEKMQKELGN
row,SMILES,% Inhibition @ 10 uM [%]
1,CC1=C(C#N)C(C)C2=C(O)CC(C)(C)CC2=N1 (stereo not drawn),-4.06
2,CCSc1c(O)cnn(C2CCCCC2)c1=O,-2.36
3,COc1ccc2c(c1)O[C@H](c1ccccc1)[C@H](O)C2,-14.6
4,CN1C(C(=O)N2CCCCC2)=CC(c2cccs2)=NS1(=O)=O,2.32
5,CC(=O)c1ccc(NC(=O)Cc2cccs2)cc1,4
6,Cc1ccc(CN2CCN(Cc3ccncc3)CC2)cc1,-3.37
7,CCCN1CCC(NCCc2ccccc2Cl)CC1,5.03
8,CCCCC(NC(=O)C(Cc1c(F)cccc1F)NC(=O)c1ccc(-c2ccccc2Cl)cc1)C(=O)c1nc2ccccc2o1 (stereo not drawn),2.87
9,CCOC(=O)N1CCN(c2cc(C)nc3c(-c4ccc(Cl)cc4)c(C)nn23)CC1,-2.72
10,CCc1nn(CC(=O)N2CCN(C)CC2)c(=O)c2cc3occc3n12,4.55
11,CCCN(CCC)c1nc(Cl)nc(NCCN2CCOCC2)n1,-0.85
12,Cc1c(C)n(C)c2ccc(C(=O)NC(C)c3ccccc3)cc12 (stereo not drawn),5.88
13,CCN(CC)CCCNC(=O)C1CCN(c2nnc(C)c3c(C)n(-c4ccccc4)nc23)CC1,-2.68
14,COc1cc(C2C(C#N)=C(N)OC3=C2C(=O)CC(C)(C)C3)ccc1OCc1ccc(F)cc1 (stereo not drawn),-6.18
15,Nn1cnn2c(SCC(=O)Nc3ccccn3)nnc12,-5.36
16,CC(=O)N1CCC2(CC1)OC(=O)C(C)=C2C(=O)NCCCN1CC(C)CC(C)C1 (stereo not drawn),-4.96
17,O=C(c1nnc(Cc2ccc(Cl)cc2)o1)N1CCc2ccccc2C1,-2.19
18,CCc1sc(NC(=O)c2c(-c3ccccc3)noc2C)nc1-c1ccccc1,-8.79
19,Cc1cc(O)nc2cc(O)ccc12,2.34
20,Cc1ccccc1-c1nnc2[nH]c(=O)n(C)c(=O)c2n1,0.569
21,CCOC(=O)c1c(C)n(C)c2ccc(OCC(O)Cn3nnc4ccccc43)cc12 (stereo not drawn),0.415
22,CC(CNC(=O)CCn1ccc2cc(S(=O)(=O)N3CCCC3)ccc21)c1ccccc1 (stereo not drawn),-5.15
23,CCCc1[nH]nc2c1C(c1ccccc1F)C(C#N)=C(N)O2 (stereo not drawn),1.08
24,COc1cccc(OC)c1C(=O)Nc1cc(C)cc(C)c1,2.22
25,CCOc1cc(-c2ccc3c(c2)OCO3)cc(=O)c2c(C)oc(C)c12,-1.6

row,SMILES,% Inhibition @ 10 uM [%]
1,Cc1cc(C)cc(C(=O)NCCSc2c(C)[nH]c3ccccc23)c1,1.94
2,Cn1c(=O)c2c(nc(SCC(N)=O)n2Cc2ccccc2Cl)n(C)c1=O,0.777
3,COc1ccc(CCCC(=O)Nc2cccc(Cl)c2)cc1,6.37
4,O=C(NC(Cc1ccccc1)C(=O)O)OCc1ccccc1 (stereo not drawn),0.487
5,Cn1ncc2c(O)ncnc21,-0.326
6,O=C(O)c1ccc(C#Cc2ccccc2)o1,-4.01
7,OCCNCc1cc(Cl)ccc1OCc1ccc(F)cc1,4.11
8,CCc1ccc2c3c(c(C)[nH]c13)CCN1C(=O)OC(C)(C)C21C (stereo not drawn),-1.24
9,CC(C)C[C@H](NC(=O)OCc1ccccc1)C(=O)NCC(=O)CN(Cc1ccco1)C(=O)OC(C)(C)C,-7.36
10,CC(=O)N1CCN(c2nc(Nc3ccccc3C(=O)c3ccccc3)nc(OC(C(F)(F)F)C(F)(F)F)n2)CC1,9.37
11,O=C(C(NS(=O)(=O)c1cccc2nsnc12)c1ccccc1)N1CCN(C2CCCCC2)CC1 (stereo not drawn),1.79
12,O=C(CC1(O)C(=O)Nc2ccccc21)c1ccc(Br)s1 (stereo not drawn),-0.884
13,COc1cccc(C2C3=C(Nc4ncnn42)c2ccccc2OC3c2cccc(F)c2)c1 (stereo not drawn),-1.62
14,CCCCCC1C(O)CC(c2ccccc2)N(C)C1c1ccccc1 (stereo not drawn),-4.18
15,CCOC(=O)c1c(CC(C)C)csc1NC(=O)c1ccc(C)cc1,-5.9
16,NCC1(c2ccc3c(c2)OCCO3)CCOCC1,-2.97
17,COc1ccc(/C=C2\SC(Nc3ccccc3Cl)=NC2=O)c(OC)c1,6.51
18,CC(C)N(Cc1cccs1)C(=O)[C@H]1[C@@H]2C[C@@H]3[C@H]1C(=O)O[C@@H]3C2,5.35
19,CC1=C(C(=O)Nc2cccc(C)n2)C(c2ccccc2C(F)(F)F)C2=C(O)CCCC2=N1 (stereo not drawn),-0.661
20,COc1ccc(OCCCn2cccc2/C=C2/C(=N)N3OC(C)=CC3=NC2=O)cc1,-5.1
21,COc1cc(OC)c(OC)cc1NC(=O)CC1COc2ccccc2O1 (stereo not drawn),7.74
22,O=C(CN1C(=O)c2cccc3cccc1c23)Nc1ccccc1C(F)(F)F,6.79
23,CCCCc1nn2c(C)c(-c3ccc(C)cc3)nc2s1,2.41
24,Nc1nc(SCc2ccc(C(=O)NCCO)cc2)nc2sc3c(c12)CCCC3,0.146
25,CC(=O)Nc1ccc(NC(C)=O)c(C(C)(C)C)c1,2.76

row,SMILES,% Inhibition @ 10 uM [%]
1,C=CCOc1ccc(/C=C2\C(=O)NC(=O)N(CC=C)C2=O)cc1OC,0.997
2,O=C(/C=C/c1ccccc1)Nc1cc(Cl)ccc1Cl,-4.94
3,COCCCNC(=O)CNC(=O)Cn1ccc2ccccc2c1=O,-0.972
4,COc1cc(C2C3=C(CCCC3=O)OC3=C2C(=O)CCC3)ccc1OCc1ccccc1,0.736
5,CCOC(=O)N1CCC(NC(=O)c2cc(S(=O)(=O)NCCc3ccccc3)ccc2F)CC1,3.04
6,COc1ccc(/C=C(\NC(=O)c2cccc(Br)c2)C(=O)NCCO)cc1,-8.72
7,O=C(O)CNC(=O)C(Cc1ccccc1)NC(=O)OCc1ccccc1 (stereo not drawn) (HELM PEPTIDE1{[O=C(OCc1ccccc1)[*:2]].[O=C(C(Cc1ccccc1)N[*:1])[*:2]].G}$$$$V2.0),-3.64
8,COc1ccc(N2CN=C3SC(CO)(CO)C(=O)N3C2)cc1,3.05
9,CC(C)CN1C(=O)c2ccccc2C(C(=O)Nc2cccnc2)C1c1cccs1 (stereo not drawn),-0.825
10,CCc1ccc(Oc2nc3c(C)cccn3c(=O)c2/C=C(\C#N)C(=O)NC)cc1,2
11,O=C(c1csc2c1CCCC2)N1CCN(c2ccc(F)cc2)CC1,0.992
12,CC1(C)CC(=O)C2=C(C1)N(c1nc[nH]n1)C(N)=C(C#N)C2c1ccccc1C(F)(F)F (stereo not drawn),-0.105
13,CCOc1ccc(C(C)(C)C)cc1S(=O)(=O)n1c(C)nc2ccccc21,0.627
14,CCn1c2ccccc2c2cc(CN3CCCCC3)ccc21,-6.62
15,O=[N+]([O-])c1ccc(N2CCCCCC2)c2nonc12,-2.44
16,CCOC(=O)C(=O)Nn1cnnc1,4.86
17,CCCc1cc(O)nc(SC/C=C/c2ccccc2)n1,-5.32
18,O=C(Nc1cccnc1)c1cccc(C(=O)Nc2cccnc2)c1,5.08
19,O=C(Nc1cnn(Cc2ccc(F)cc2)c1)C12CC3CC(CC(C3)C1)C2,6.15
20,Cn1c(-c2ccccc2)c(C=O)c2ccccc21,-0.053
21,CN(C)CCNC(=O)c1cc2c(s1)-c1ccccc1SC2,-5.89
22,CC(C)CC(=O)Nc1cccc(NC(=O)CC(C)C)c1,0.993
23,CCOC(=O)c1cc(-c2ccccc2)sc1NC(=O)CCN1CCOCC1,-3.21
24,O=C(c1cc2c(s1)-c1ccccc1S(=O)(=O)C2)N1CCC(N2CCCCC2)CC1,0.953
25,Oc1cccc2cnccc12,-5.38

row,SMILES,% Inhibition @ 10 uM [%]
1,COc1ccccc1CNc1nc2ccc(Cl)cc2nc1-n1nc(C)cc1C,-1.14
2,COc1ccc(CNS(=O)(=O)c2cc(Cl)ccc2Cl)cc1,0.247
3,Cc1oc(-c2ccc3c(c2)OCCO3)cc1C(=O)NC(C(=O)O)C(C)C (stereo not drawn),-9.34
4,CSC1=C(C#N)C(c2sccc2C)CC(=O)N1 (stereo not drawn),-3.14
5,N#Cc1ccccc1NC(=O)Nc1cccc(Cl)c1,2.62
6,CCCN(CCC)C(=O)Cn1c(SCc2ccc(F)cc2)nc2cccnc21,-1.6
7,N#C/C(=C\c1ccco1)c1nc(C2CC2)cs1,5.03
8,CCOC(=O)c1cc2n(n1)C(C(F)(F)F)CC(c1ccccc1)N2 (stereo not drawn),-0.142
9,Cn1c(NC(=O)C2CCN(C(=O)c3cnn(-c4ccccc4)c3-n3cccc3)CC2)nc2ccccc21,4.95
10,CN1CCN(S(=O)(=O)c2cnccc2N2CCN(CCO)CC2)CC1,-5.13
11,CC(C)COc1ccc2[nH]c3c(c2c1)CCCC3=O,0.0792
12,CC(C(=O)NCCc1c[nH]c2ccccc12)n1sc2ccccc2c1=O (stereo not drawn),-3.43
13,Cc1ccc(C)c(N2C(=O)c3ccccc3C2=O)c1,0.331
14,COc1ccc(-c2cc(C(F)(F)F)nc(SCC(=O)NCCCn3ccnc3)n2)cc1,11.3
15,Fc1ccccc1N1CCN(C2CCN(CCc3ccccc3)CC2)CC1,3.48
16,O=C(O)c1ccc(NS(=O)(=O)c2cccc(C(=O)Nc3ccc([N+](=O)[O-])cc3)c2)cc1,1.64
17,O=C(O)CCn1c2ccc(Cl)cc2c2cc(Cl)ccc21,3.06
18,COc1ccc(S(=O)(=O)NC2CC3CCC2C3)cc1C (stereo not drawn),-12.3
19,Cc1ccc(CN(Cc2ccco2)C(=O)COc2ccc(C)cc2)cc1,1.25
20,C=CCOc1ccc(C2C3=C(CC(C)(C)CC3=O)OC3=C2C(=O)CC(C)(C)C3)cc1OC,-7.34
21,CCc1cccc2c(C(=O)C(F)(F)F)cn(CC(=O)NCC3CCCO3)c12 (stereo not drawn),5.52
22,CC(=O)Nc1ccc(C(C)(C)C)cc1NC(C)=O,0.992
23,COc1cccc(OC)c1C(=O)N1CCN(Cc2cccnc2)CC1,5.55
24,CCSc1nc(-c2ccc(OC)cc2)cc(-c2ccc(OC)cc2)c1C#N,-7.35
